Assay results reported in PMC4336329 (PLoS ONE, 2015).
In all, about 310,000 compounds went through this assay and about 14,000 (4.5%) showed an effect of 50% or more. Effects have a minus sign here. The list shows a part of the results.

Target: human ether-à-go-go-related gene (hERG) potassium channel (human, UniProt Q12809)
Assay: primary screen, population patch clamp on CHO cells stably expressing hERG
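Note: peak tail current of the secondary pulse compared with the same well before compound.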

Chain of human ether-à-go-go-related gene (hERG) potassium channel (Q12809 whole entry, looked up): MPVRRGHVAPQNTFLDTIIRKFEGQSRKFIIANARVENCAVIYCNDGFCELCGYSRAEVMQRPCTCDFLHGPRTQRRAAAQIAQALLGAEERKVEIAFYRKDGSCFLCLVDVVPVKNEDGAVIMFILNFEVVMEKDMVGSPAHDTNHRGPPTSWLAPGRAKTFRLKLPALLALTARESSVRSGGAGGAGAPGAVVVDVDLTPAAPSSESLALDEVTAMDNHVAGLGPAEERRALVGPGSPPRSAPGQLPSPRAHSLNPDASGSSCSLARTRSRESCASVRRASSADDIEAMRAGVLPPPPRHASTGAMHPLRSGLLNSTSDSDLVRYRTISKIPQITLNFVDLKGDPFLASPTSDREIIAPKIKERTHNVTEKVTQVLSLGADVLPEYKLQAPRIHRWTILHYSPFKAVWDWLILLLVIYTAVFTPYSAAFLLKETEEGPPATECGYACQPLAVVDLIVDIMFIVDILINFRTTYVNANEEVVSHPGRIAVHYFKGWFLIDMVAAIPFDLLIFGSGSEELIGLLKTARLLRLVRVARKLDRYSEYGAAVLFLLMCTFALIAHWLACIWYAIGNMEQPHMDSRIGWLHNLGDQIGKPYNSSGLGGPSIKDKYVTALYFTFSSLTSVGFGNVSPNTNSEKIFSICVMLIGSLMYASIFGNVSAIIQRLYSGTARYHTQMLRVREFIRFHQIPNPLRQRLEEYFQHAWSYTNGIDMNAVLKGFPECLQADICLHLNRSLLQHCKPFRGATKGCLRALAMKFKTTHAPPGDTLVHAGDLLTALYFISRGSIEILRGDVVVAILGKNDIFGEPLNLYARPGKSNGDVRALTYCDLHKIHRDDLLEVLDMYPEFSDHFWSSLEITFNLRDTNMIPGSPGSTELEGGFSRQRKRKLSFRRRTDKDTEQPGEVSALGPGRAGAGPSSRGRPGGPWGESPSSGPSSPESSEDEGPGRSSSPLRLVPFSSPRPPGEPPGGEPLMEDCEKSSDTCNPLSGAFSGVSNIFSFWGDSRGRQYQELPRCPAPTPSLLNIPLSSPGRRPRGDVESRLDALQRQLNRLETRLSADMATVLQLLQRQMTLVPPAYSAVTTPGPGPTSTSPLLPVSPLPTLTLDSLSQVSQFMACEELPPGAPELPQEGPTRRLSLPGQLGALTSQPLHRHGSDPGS

SMILES | hERG current change (%, negative = inhibition) at 10uM
NC(=O)[C@@H]1CCCN1Cc1c(C(=O)N2CCN(C3CCCCC3)CC2)nc2ccccn12 | 1.39%
COc1ccc(NC(=O)CN2C(=O)NC(c3ccccc3)(c3ccccc3)C2=O)cc1OC | -22.2%
COc1ccc(Cl)cc1NC(=S)N1CCCC1 | 15.5%
Cc1nnc(NC(=O)c2ccc(C)c(S(=O)(=O)N3CCOCC3)c2)s1 | 9.4%
CN(C)C=O.O=C(NCCc1ccccc1)c1oc2ccccc2c1COc1ccccc1 | 12.4%
CCOC(=O)c1ccccc1Oc1c(F)c(F)nc(NCCO)c1F | 10.2%
O=C1NC[C@H](CC2CCCCC2)N(CCc2cccc(F)c2)C1=O | -10.7%
Cc1cc(C)c2c(CN3CCN(C/C=C/c4ccccc4)CC3)cc(=O)oc2c1 | -76.9%
Cn1c(=O)[nH]c2cc3ccccc3cc21 | 2.36%
CC(=NCCN1CCN(C(=S)Nc2ccccc2)CC1)C1=C(O)CC(C)(C)CC1=O | -15.3%
O=C(CSc1nnnn1-c1ccc(F)cc1)Nc1ccc(N2CCOCC2)c(Cl)c1 | -18.1%
Cc1cc(S(=O)(=O)Nc2ccc(C(=O)NCC(c3ccco3)N3CCCCC3)cc2)ccc1F (stereo not drawn) | -41.2%
O=C(Nc1nc2c(Cl)cccc2s1)c1ccc([N+](=O)[O-])o1 | 26.8%
Oc1ccc(Cl)cc1C(C#Cc1ccccc1)N1CCOCC1 (stereo not drawn) | -0.922%
COCCNC(=S)Nc1ccc2nsnc2c1 | -11.2%
COc1ccc(CN(C)C(=O)c2[nH]c(C)c(C(C)=O)c2C)c(OC)c1OC | -1.66%
COc1ccc(C(=O)CSc2nnc(CNc3nc(-c4ccccc4)cs3)n2C)cc1 | -11.8%
CCOC(=O)c1c(C)n(CCOc2ccccc2)c2ccc(O)cc12 | 17.9%
O=C(NCCN1CCOCC1)c1ccc(Cl)nc1 | 6.3%

SMILES | hERG current change (%, negative = inhibition) at 10uM
CCCCNC(=O)c1ccc2c(SCC(=O)O)c3c(nc2c1)CCCC3 | 7.59%
Cc1ccccc1OCC(=O)NNC(=O)C1CC(=O)N(c2ccc3c(c2)OCCO3)C1 (stereo not drawn) | -9.06%
COc1ccc(-c2cn3cccnc3n2)cc1NC(=O)C1CCCC1 | -6.23%
O=C(NCC1CCCO1)c1cccc(N2C(=O)C3C4C=CC(C4)C3C2=O)c1 (stereo not drawn) | 5.84%
COc1ccc(Nc2ncccc2C(=O)NCc2ccccc2)cc1 | 0.461%
CC(=O)C(=Nc1ccc(Cl)cc1Cl)NNc1cccc(Cl)c1 | 13.5%
COC(=O)[C@H](Cc1ccccc1)NC(=O)NCc1ccc(S(N)(=O)=O)cc1 | 19.1%
Cn1ncc2c(NNC(=O)c3ccc(Cl)cc3Cl)ncnc21 | 10.2%
COc1cc(CNn2cnnc2)ccc1OCC(=O)NC1CCCCC1 | -1.35%
COc1cc(CN2CCN(c3cccc(C)c3C)CC2)cc(OC)c1O | -45.4%
CC(CCc1ccccc1)NC(=O)CSc1ccccn1 (stereo not drawn) | -18.5%
O=C(CC1(CC(=O)N2CCOCC2)CCCC1)Nc1ccccc1 | -1.63%
Cc1nc2c(C)cccn2c1/C(O)=C1\C(=O)C(=O)N(CCN(C)C)C1c1ccncc1 (stereo not drawn) | 4.49%
CN(CC(=O)Nc1c(Cl)cccc1Cl)C(=O)Cn1[nH]c(=O)c2ccccc2c1=O | 0.265%
Cc1ccc(CNC(=O)C2CC=CCC2C(=O)O)cc1 (stereo not drawn) | 16.3%
COc1ccc(NC(=O)CSc2cn[nH]n2)c(OC)c1 | 10.8%
Cc1nnc(NC(=O)c2ccccc2NC(=O)c2ccccc2)s1 | 8.36%
Cc1ccc(-c2nc(SC(C)C(=O)N3CCOCC3)n[nH]2)cc1 (stereo not drawn) | 4.04%
Cc1ccc(CS(=O)(=O)CCC(=O)NCc2ccc3c(c2)OCO3)cc1 | -7.75%

SMILES | hERG current change (%, negative = inhibition) at 10uM
CCOc1ccccc1OCCCNCc1ccccc1.O=C(O)C(=O)O | -6.53%
CCN(C(=O)CSc1nnc(-c2c[nH]c3ccccc23)o1)C1CCS(=O)(=O)C1 (stereo not drawn) | 7.81%
O=C1C=C(N2CCN(C(=O)c3ccccc3)CC2)C2(CCCCC2)O1 | -10.3%
CCc1c(O)nc(SCC(=O)Nc2ccccc2C)[nH]c1=O | 6.84%
O=C(Nc1ccccc1C(=O)O)c1ccc(NC(=O)c2ccc(Br)o2)cc1 | 11.7%
Cc1ccc(NC(=O)[C@H](C)NC(=O)C2CCN(C(=O)[C@@H](N)C(C)C)CC2)cc1 | 5.23%
COc1ccc(NC2CCCN(C(=O)c3cn(C)c4ccccc34)C2)cc1 (stereo not drawn) | 3.47%
CC1=NN(S(=O)(=O)c2ccc(Cl)cc2Cl)C(=O)c2ccccc2O1 | -24.3%
O=C1CC2(CCN(C(=O)COc3ccccc3)CC2)Oc2ccccc21 | -67.4%
O=C1CN(c2nc3nonc3nc2N2CCCCC2)CCN1 | 10.5%
CCNC(=S)NNC(=O)c1cc(C2CC2)nc2ccccc12 | -17.8%
C#CCNC(=O)C1=C[C@@H](c2cn(C(C)=O)c3ccccc23)C[C@@H](OCCCCO)O1 | -40.1%
O=C(Cc1ccccc1)NCCn1ccc2ccccc21 | 1.61%
Cc1ccc(C)c(NC(=O)C2CCCN(c3cnccn3)C2)c1 (stereo not drawn) | -13.3%
CSc1ccccc1-n1nnnc1SCC(=O)Nc1cc(C)ccc1C | -5.79%
O=C(O)CCCn1nc(C(F)(F)F)c2c1CCCCC2 | 8.82%
O=C(CSc1nc2ccccc2c(=O)n1-c1ccc(F)cc1)Nc1ccc(Cl)c(S(=O)(=O)N2CCOCC2)c1 | -21.9%
CCCCCc1ccc(-c2ccc(OCC)cc2)nc1 | 0.649%
CC(=O)Nc1ccc(NCC(O)COc2ccccc2)cc1.Cl (stereo not drawn) | -3.82%
